According to PubChem BioAssay AID463173 (ICCB-Longwood Screening Facility, Harvard Medical School, 2010):
In all, about 52,000 compounds went through this assay and about 4,300 (8.3%) were called active. Cut-off read from the data, not from the text of the source: active = survival mostly below about 52% (no sharp cut-off); inactive = mostly above about 56%. Some of the results follow.

These molecules were tested on DeltatarO mutant (assay: growth inhibition of S. aureus wild type versus tarO mutant, primary screen, teichoic acid synthesis inhibitors, RN4220, OD600 (AID 463173)). Conditions: OD600, 18 h, active compounds read low, screened at 18.75 µg/mL (by protocol).

`Cc1cc2nc(-c3cccc(NC(=O)COc4ccc(Cl)c(C)c4)c3)oc2cc1C` was tested. Which survival did it give?
Its survival is inactive: 64%.

How did the survival turn out when `COc1ccccc1-c1cc(NC(=O)COc2ccc(C)c(C)c2)n(-c2ccccc2)n1` was run?
Its survival is inactive: 99%.

`COc1ccccc1NC(=O)C1CCN(S(=O)(=O)c2cn(C)cn2)CC1` was tested. Which survival did it give?
Its survival is inactive: 69%.

For `COc1ccc(CN(Cc2cccnc2)C(=S)NCc2ccco2)cc1OC`, which survival is on record?
Its survival is inactive: 75%.

With `CCOc1ccc(NC(=O)CN2C(C(=O)OC)=C(c3ccccc3)c3cc(Cl)ccc3S2(=O)=O)cc1` as the molecule, how does the survival read?
The survival was inactive: 63%.

For `Cc1cc(=O)[nH]c2nnc(SCc3ccc(Cl)cc3)n12`, which survival is on record?
The survival was inactive: 129%.

For `COC(=O)C1=C(c2ccccc2)c2ccccc2S(=O)(=O)N1CC(=O)Nc1ccc(OC)cc1OC`, which survival is on record?
Its survival is inactive: 166%.

Which survival does the source give for `COc1ccc(C(C)C)cc1S(=O)(=O)N1CC(C)OC(C)C1` (stereo not given) here?
Its survival is inactive: 88%.

With `CC1=C(C(=O)Nc2ccc(F)cc2F)C2(CCCCCC2)OC1=O` as the molecule, how does the survival read?
The survival was inactive: 83%.

For `O=C(CSc1nccn1Cc1ccc(Cl)cc1)NCc1ccccc1`, which survival is on record?
Its survival is inactive: 49%.

Which survival does the source give for `COc1ccccc1CNC(=O)C(CC(C)C)N1Cc2ccccc2C1=O` (stereo not given) here?
The survival was inactive: 87%.

How did the survival turn out when `CCOC(=O)c1ccc(N2C(=O)c3n[nH]c(-c4ccco4)c3C2c2ccc(F)cc2)cc1` (stereo not given) was run?
The survival was active: 22%.

With `Cc1cccc(CC(=O)NCCc2csc(-c3ccc(C(F)(F)F)cc3)n2)c1` as the molecule, how does the survival read?
Its survival is inactive: 101%.

With `Cc1ccc(C)c(C(=O)COC(=O)CCCC(=O)Nc2cc(C(F)(F)F)ccc2Cl)c1` as the molecule, how does the survival read?
The survival was active: 25%.

For `CCOc1ccc(CCNC(=O)c2cnc3sc(N4CCCCCC4)nn3c2=O)cc1`, which survival is on record?
Its survival is inactive: 94%.

Which survival does the source give for `COc1ccc(OC)c(NC(=O)CN2CCCN(Cc3cc(C)ccc3C)S2(=O)=O)c1` here?
The survival was inactive: 89%.

Which survival does the source give for `CC(C)OCc1cc(CN2CCN(c3ccccc3)CC2)c(O)c2ncccc12` here?
The survival was inactive: 71%.

How did the survival turn out when `O=C(Cn1ncc2c(Cl)cccc21)NCc1cccc(Br)c1` was run?
The survival was inactive: 116%.

For `Cc1ccc(Cn2c(CCCNC(=O)C3CCCCC3)nc3ccccc32)cc1`, which survival is on record?
The survival was inactive: 97%.

How did the survival turn out when `CC(C)CCNC(=O)c1ccc2c(c1)N(Cc1ccccc1F)C(=O)c1ccccc1S2=O` (stereo not given) was run?
The survival was inactive: 84%.

`COc1ccccc1OCC(=O)NCC1(N(C)C)CCCCC1` was tested. Which survival did it give?
The survival was inactive: 91%.

For `COc1ccc(C(=O)NCCSc2ccccn2)cc1`, which survival is on record?
Its survival is inactive: 78%.

How did the survival turn out when `Cc1ccc(N2CC(NC(=O)C(=O)c3c[nH]c4ccccc34)CC2=O)cc1` (stereo not given) was run?
Its survival is inactive: 102%.

`Cc1oc(C(=O)O)cc1CSCc1cc(C(=O)O)oc1C` was tested. Which survival did it give?
Its survival is inactive: 80%.

How did the survival turn out when `COc1ccc(C)cc1NC(=O)Cn1cc(S(=O)(=O)Cc2ccccc2Cl)c2ccccc21` was run?
Its survival is inactive: 93%.

For `CCOc1cc2c(cc1OCC)C(c1c(F)cccc1Cl)CC(=O)N2` (stereo not given), which survival is on record?
Its survival is inactive: 74%.

`Cc1cccc(NC(=O)Cn2c(C(F)(F)F)nc3ccccc32)c1C` was tested. Which survival did it give?
Its survival is active: 31%.

`CCc1ccccc1NC(=O)c1nc(-c2ccncc2)no1` was tested. Which survival did it give?
The survival was inactive: 46%.

`O=C(NCCc1csc2nc(-c3ccc(F)cc3)nn12)c1ccco1` was tested. Which survival did it give?
Its survival is inactive: 104%.

Which survival does the source give for `COc1cc(C2C(C(=O)Nc3ccccc3)=C(C)Nc3nc(SCc4ccccc4F)nn32)cc(OC)c1OC` (stereo not given) here?
The survival was inactive: 128%.

`Cc1sc2c(c1C)c(=O)n(-c1ccc(Cl)cc1)c(=O)n2Cc1c(F)cccc1Cl` was tested. Which survival did it give?
Its survival is inactive: 83%.

`CCOC(=O)c1c(S(=O)(=O)N2CCC(C(=O)N3CCN(c4cc(C)ccc4C)CC3)CC2)c(C)n(C)c1C` was tested. Which survival did it give?
The survival was inactive: 75%.

How did the survival turn out when `CCOc1ccccc1CNS(=O)(=O)c1csc(C(N)=O)c1` was run?
Its survival is inactive: 68%.

With `CC1CCN(S(=O)(=O)c2cc(C(=O)Nc3ccc(Br)cc3F)n(C)c2)CC1` as the molecule, how does the survival read?
Its survival is inactive: 83%.

`COC(=O)c1cc(NC(=O)CCc2c(C)nc3cc(-c4ccccc4)nn3c2C)cc(C(=O)OC)c1` was tested. Which survival did it give?
The survival was inactive: 118%.

With `Cc1ccc(-c2cc(C(=O)N3CCN(c4ccccc4)CC3)c3ccccc3n2)cc1C` as the molecule, how does the survival read?
The survival was inactive: 113%.

For `COc1ccc(N2CCN(C(=O)CS(=O)(=O)c3cccc4nsnc34)CC2)cc1`, which survival is on record?
Its survival is inactive: 107%.

With `CC(=O)N1CCc2cc(Br)cc(S(=O)(=O)N3CCN(c4cccc(C)c4)C(C)C3)c21` (stereo not given) as the molecule, how does the survival read?
Its survival is inactive: 74%.

How did the survival turn out when `O=C(NCCc1csc(-c2cccnc2)n1)c1ccc(F)c(F)c1` was run?
Its survival is inactive: 118%.

For `CCCCN1CCc2nc(N3CCN(C)CC3)ncc2C1`, which survival is on record?
The survival was inactive: 72%.

For `CN(C)c1ccc(CNC(=O)CCCn2ccc3cc(S(=O)(=O)N4CCCC4)ccc32)cc1`, which survival is on record?
Its survival is active: 8%.

With `COc1ccc(CCN2CCC(CNC(=O)c3cnn(-c4ccccc4)c3C3CCN(C(=O)OC(C)(C)C)CC3)CC2)cc1` as the molecule, how does the survival read?
Its survival is inactive: 69%.

`Cc1nn(C(C)C(=O)NC2CCC(C)CC2)c(=O)c2cc3sccc3n12` (stereo not given) was tested. Which survival did it give?
The survival was inactive: 88%.

Which survival does the source give for `COc1cccc(N2CCN(S(=O)(=O)c3ccc4c(c3)CCCN4C(C)=O)CC2)c1` here?
The survival was inactive: 81%.

`CCOC(=O)c1c(NC(=O)c2cc(=O)c3ccc(C)cc3o2)sc(C)c1C` was tested. Which survival did it give?
The survival was inactive: 100%.

`COc1ccc(Cl)cc1NC(=O)c1cc(C)nn1-c1ccccc1` was tested. Which survival did it give?
The survival was inactive: 67%.

For `Oc1ccc(NCc2ccc(OCc3ccccc3Cl)cc2)cc1`, which survival is on record?
The survival was active: 35%.

Which survival does the source give for `O=C(CSc1nc(=O)n(Cc2cccnc2)c2c1CCC2)Nc1ccc(F)cc1F` here?
The survival was inactive: 78%.

With `Cc1ccc(Cc2nc3ccccc3nc2SCC(=O)N2CCCCC2C)cc1` (stereo not given) as the molecule, how does the survival read?
The survival was inactive: 94%.

For `CCN(CC)c1ncnc(Cl)c1Cc1ccc(OC)cc1`, which survival is on record?
The survival was inactive: 105%.

`COC(=O)c1cccc(NC(=O)Nc2cc(C(=O)NCc3cccc(F)c3)ccc2N2CCCC2)c1` was tested. Which survival did it give?
Its survival is inactive: 91%.

`N#C/C(=C\c1c(Oc2ccc(Br)cc2)nc2ccccn2c1=O)c1nc2ccccc2s1` was tested. Which survival did it give?
The survival was inactive: 103%.

For `Fc1ccccc1-n1ncc2c1ncn1nc(Cc3ccccc3)nc21`, which survival is on record?
The survival was inactive: 74%.

Which survival does the source give for `Cc1ccc(C)c(N/C=C(\C#N)c2nc3ccccc3o2)c1` here?
The survival was inactive: 95%.

How did the survival turn out when `Cc1ccccc1NC(=O)CN(c1ccc(Cl)cc1Cl)S(=O)(=O)c1ccccc1` was run?
Its survival is inactive: 44%.

How did the survival turn out when `COc1ccc(-c2nc3sc(CCNC(=O)c4ccccc4C)c(C)n3n2)cc1` was run?
The survival was inactive: 77%.

With `Cc1cn(C)c(CC(=O)N2CCN(c3ccccc3F)CC2)c1C(=O)O` as the molecule, how does the survival read?
The survival was inactive: 89%.

Which survival does the source give for `Cc1ccc2c(c1)-c1c(c(C(=O)N3CCN(c4cc(Cl)ccc4C)CC3)nn1C)CS2` here?
The survival was inactive: 69%.

`CC(CNC(=O)CCS(=O)(=O)c1ccc2c(c1)oc(=O)n2C)c1ccccc1` (stereo not given) was tested. Which survival did it give?
Its survival is inactive: 87%.

`Cc1cccc(NC(=O)N2CCC(CN3CCOCC3)CC2)c1C` was tested. Which survival did it give?
The survival was inactive: 86%.

How did the survival turn out when `CCOc1ccc(C2C(C(=O)Nc3ccc(Cl)cc3)=C(C)Nc3nc(C(F)(F)F)nn32)cc1` (stereo not given) was run?
Its survival is inactive: 51%.

`COc1ccc(OC)c(S(=O)(=O)N2CC=C(c3c(C)n(CC(=O)N4CCCC4)c4ccccc34)CC2)c1` was tested. Which survival did it give?
Its survival is inactive: 72%.

With `O=S(=O)(c1ccc(Cl)cc1)c1nnn2c1nc(N1CCCCC1)c1sccc12` as the molecule, how does the survival read?
Its survival is inactive: 52%.

With `COc1ccc(-c2cc(C(F)(F)F)n3nc(C(=O)NCC45CC6CC(CC(C6)C4)C5)cc3n2)cc1OC` as the molecule, how does the survival read?
The survival was inactive: 137%.

With `Cc1cccc(Cn2c(C)c(CNC3CCCCC3)c(C(=O)O)c2C)c1` as the molecule, how does the survival read?
Its survival is inactive: 90%.

For `CCOC(=O)c1ccccc1NC(=O)N1CCOc2ccc(Cl)cc21`, which survival is on record?
The survival was inactive: 99%.

Which survival does the source give for `CC1CCN(S(=O)(=O)c2ccc3c(c2)N(CC(=O)O)C(=O)CO3)CC1` here?
Its survival is inactive: 94%.

`CCc1ccccc1NC(=O)CSc1nc2c(oc3ccccc32)c(=O)n1-c1ccccc1F` was tested. Which survival did it give?
Its survival is inactive: 76%.

Which survival does the source give for `Cc1ccc(NC(=O)C(=O)NCC(c2cccnc2)N2CCN(Cc3ccccc3)CC2)cc1` (stereo not given) here?
The survival was inactive: 88%.

With `Cc1ccc2ccc3cc(C(=O)N4CCN(c5ccccc5)CC4)nc3c2[nH]1` as the molecule, how does the survival read?
The survival was inactive: 120%.

With `CC(=O)Nc1ccc(-c2nnc(SCC(=O)c3ccc([N+](=O)[O-])cc3)o2)cc1` as the molecule, how does the survival read?
Its survival is inactive: 66%.

How did the survival turn out when `O=C(Cn1nnc(-c2ccncc2)n1)NCCc1ccccc1` was run?
The survival was inactive: 84%.

For `O=S(=O)(NCc1ccccc1Cl)c1ccc(N2CCCCS2(=O)=O)cc1`, which survival is on record?
The survival was inactive: 129%.

For `Cc1cccn2c(=O)c3cc(C(=O)N(Cc4ccccc4)C(C)C)sc3nc12`, which survival is on record?
The survival was inactive: 63%.

Which survival does the source give for `Cc1cccc(C(=O)Nc2nc(-c3nnn(-c4cc(F)ccc4F)c3C)ns2)c1` here?
Its survival is inactive: 128%.

Which survival does the source give for `CCCCN(C)CCNC(=O)c1ccc2c(c1)NC(=O)CN2` here?
The survival was inactive: 71%.

Which survival does the source give for `Cc1c(C(=O)NCCc2ccc(S(N)(=O)=O)cc2)sc2nc3n(c(=O)c12)CCCC3` here?
Its survival is inactive: 83%.

`CC(C)N1CCc2c(sc(NC(=O)c3ccc(S(=O)(=O)N(C)C4CCCCC4)cc3)c2C(N)=O)C1` was tested. Which survival did it give?
The survival was inactive: 86%.

For `O=C(NCc1ccc(Cl)cc1)c1ccc(CNS(=O)(=O)c2ccc(F)cc2)cc1`, which survival is on record?
Its survival is inactive: 83%.

Which survival does the source give for `COCCc1nn2c(=O)cc(COC(=O)c3ccco3)nc2s1` here?
The survival was inactive: 92%.

With `CCC1CCCCN1C1CC(=O)N(c2ccc(NC(C)=O)cc2)C1=O` (stereo not given) as the molecule, how does the survival read?
The survival was inactive: 96%.

`Cc1ccccc1CNC(=O)C(=O)NCC(c1ccc2c(c1)OCO2)N1CCOCC1` (stereo not given) was tested. Which survival did it give?
The survival was inactive: 87%.

How did the survival turn out when `CCOc1ccc(-c2nnc(N(C(=O)C3CCC3)C(C)C)s2)cc1` was run?
Its survival is inactive: 101%.

Which survival does the source give for `Cc1ccc2c(c1)-c1c(cnn1CC(=O)N1CCN(c3cc(C)ccc3C)CC1)CO2` here?
Its survival is inactive: 50%.

`Cc1ccccc1S(=O)(=O)Cc1ccc(C(=O)NCCc2ccccc2)o1` was tested. Which survival did it give?
Its survival is inactive: 76%.

`Cc1n[nH]c(C)c1Cc1ccc(N)cc1` was tested. Which survival did it give?
The survival was inactive: 93%.

With `CC1CCN(c2csc3ccc(F)cc3c2=O)CC1` as the molecule, how does the survival read?
Its survival is inactive: 113%.

Which survival does the source give for `CCCN1CCN(CCCNC(=O)c2ccc3c(c2)sc2nc(-c4ccc(OCC)cc4)cn23)CC1` here?
Its survival is active: 28%.

How did the survival turn out when `Cc1ccc(CN(CC(=O)NC2CCCC2)C(=O)CSc2nnc(COc3ccccc3)o2)cc1` was run?
The survival was inactive: 80%.

How did the survival turn out when `CCOc1ccc(-c2cn3c(n2)sc2cc(C(=O)N4CCCC(C)C4)ccc23)cc1` (stereo not given) was run?
Its survival is inactive: 58%.
